The values below come from the supplement of paper PMC10681739.

Whole data set: some 4,000 sequences, median “arbitrary fluorescence units” near 830, cut for the highest 2% near 6,500. The list lacks most of the strong results.
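Also: Full-length recombinant human RUNX1 bound to double-stranded DNA microarray spots, detected with an Alexa488-labelled secondary antibody after the anti-RUNX1 primary, read as scanned spot fluorescence.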

For the experiment, the target named is RUNX1 (UniProt Q01196). The experiment can be described thus: RUNX1 binding intensity (PBM fluorescence), RUNX1 alone (arbitrary fluorescence units); higher = stronger binding. Particulars: RUNX1 concentration 2 nM; ETS1 concentration 0 nM. The protocol: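 gcPBM on 36-bp genomic-derived probes (partner site mutated) containing one RUNX1 site and no ETS1 site. Recombinant human RUNX1 (2 nM) was incubated alone or with ETS1 (25 nM) and detected by anti-RUNX1 antibody fluorescence. Values are medians over 4 replicate spots (not normalised). The probes sit in constant array flanks that are not printed.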
UniProt Q01196, sequence (Q01196 whole entry): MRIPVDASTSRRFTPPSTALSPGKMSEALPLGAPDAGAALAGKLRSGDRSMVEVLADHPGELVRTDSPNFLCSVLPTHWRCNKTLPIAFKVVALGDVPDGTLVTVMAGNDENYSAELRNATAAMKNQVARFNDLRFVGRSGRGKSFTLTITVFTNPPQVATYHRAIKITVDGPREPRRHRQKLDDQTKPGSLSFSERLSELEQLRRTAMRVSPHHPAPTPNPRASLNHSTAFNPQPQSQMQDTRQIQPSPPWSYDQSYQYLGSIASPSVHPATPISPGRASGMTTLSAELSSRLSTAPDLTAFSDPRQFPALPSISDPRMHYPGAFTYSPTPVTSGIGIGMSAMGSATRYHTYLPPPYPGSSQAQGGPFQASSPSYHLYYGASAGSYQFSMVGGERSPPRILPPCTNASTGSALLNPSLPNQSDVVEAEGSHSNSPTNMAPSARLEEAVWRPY
Sequence AAACTAGTTCCCCATATCATCTGTGGCTTGCACAAC displayed an RUNX1 binding intensity of 973. In turn, CTCGCAACCACAGCAGCCGCGCAGCAAGTGCCTGTA registered an RUNX1 binding intensity of 938.

On to GCTTCAGCTCCAACCCGCGCACTTCCAGAGAACGGG, for which the RUNX1 binding intensity is 790. Then AATAAACAGAAAGGTCTCTTGGAGCTGTGGTCTTGG, with 710; and TAATGCGGTGACATCAGCAAGGCCAAACAGAAAGCT, with 929.

ACGTAGACATGAAAGTAATGTGGTTCAGGACTGAGT displayed an RUNX1 binding intensity of 776. To GAGAGCTGAGCGCAAGCTCAGCTGTGGGGCTGGTTG belongs 649; to TTTGCGGCGAGAGTCAAGTTCCCACACCCTGTTGAA, 936.

With GCACGTGTTGCCTGGGGCTGCACCACAGCACCACAC, the RUNX1 binding intensity is 805.

The sequence GACGGAATGTAGGTTTTCAGCCGTGGCCACAGGAGA came in with an RUNX1 binding intensity of 700. Then CGGGCCCGCAGCAGATCCTGGATCTGGAATCTCCCG, with 770; and TGGGCGCTGACCCGCAACCAGGAGGCGGCGGACACT, with 842; and TCCGCCCCGCCCCGCAAACTTCCAGCCGCCCTGGGC, with 1060. As for TACCAACATGAATCTTTGGGGTCTAAACCGCAAACA, the RUNX1 binding intensity stood at 4540. TGTTGTAGGGCAAGTGGTGTGTGGTATTCCTGGGGA: the RUNX1 binding intensity is 749. Turning to TCCTGTCCCACTGTGGTTCCTGGGATTTTTGTTGTT, the RUNX1 binding intensity is 957. To CAGGCAGATCAGACCACAGAAGCGGAGGAGGCGGGG belongs 846; to ATGTGGTTGGGGCGGGAGCGTGCGTCCTTTCTGTGT, 716. Then AAAGAATGTTGCGGCCAGAGAGCAGCCGCTGTCGCT, with 810. Turning to TATTCTTCATGTACTTAAGCTTGCTGGTGTGGTTTC, the RUNX1 binding intensity stood at 878. Then CTACCGGGAGTGCGGGTCGCGCTTCAGGCGGCGTCC, with 724.

With GGGGAAATCGCGGTCTTAGCATTCGGCGCGCGGCGG, the RUNX1 binding intensity was determined as 826. Take ACAAAGTCAGTGGTAATGTGGAACGCCCGCCAAGAG: the RUNX1 binding intensity worked out at 769. Then AGGCGGGCTGTGGTTAAGCAGTGCAGGGTGTAGGCT, with 2540. Then CCGCGCCGCTTGCTCCAGACACCGCAAGGGGGTGCT, with 843; and GCAGCGCCTTAGACCGCTCGGCCATGCTGACTGCTT, with 706; and AGCCAGGCAATCCGCGCCTACACAGCCCAACCACAG, with 951. To AGCCAACAGAAAGCTGCAGAGACTAAACCACAGCAA belongs 855; to CCAGACAGATTCCTCTGGTTGTGGGTGATGGTTCCA, 866.

AGCCGTTGCCGGCGCTCTACCCCGCCGCAGGCCGAG gave an RUNX1 binding intensity of 788. Then CTCTGCCCGATTCCGCTGGCGGTACCTCAGAGCCGC, with 791. To TGGCGGCGGAGACTGCCCATGCCGCGAGGCCGCAAG belongs 688.

Turning to CCTTCGTTCAGCTGGCAGTAACTAGGCAGTGGTCAC, the RUNX1 binding intensity was 838. To ACTCAAAAACCACCTCCCCCTCAGGGAGCAAGGAGG belongs 819; to CGGAGGGAAACCGCACCCCTGCCTCTTTCATGGGCC, 3110. To TACCCCGCCGTAAGCCCCCTGCTCTGTGGGAACCGG belongs 768. To GTGAGCTTGCCGGCGCGCGGGGGGCGGTGCGGCTTC belongs 717; to GACCCATAGCTGAAAATTCTACCGCACTACCTCCCT, 1400. GCGAAAGGAACTCCCTTTGCATGCGGTCAGAGTGCT gave an RUNX1 binding intensity of 957. To GCCTCCATTCGGAGACCAGAAAGCCCGCAGGCAAGG belongs 807; to GTAAAAGGACGTAAAGGCTTGGCCGGGCGCGGTGGC, 740; to CCTGCCGAGGAGGTCCCACGTCACTGCGGTTAGAGT, 1610.

In the case of CGTGGCGGTTGAGGGGCAGTGGTGGCGGCGCAAGCC, the RUNX1 binding intensity amounted to 808. Turning to AGTTCCAGCAACCACGGCTCCCTCTTCAGGTCCCGG, the RUNX1 binding intensity is 844. Then GGACGCCGCCTGAAGCGCGACCCGCACTCCCGGTAG, with 767; and GGTGTGGTCAACACTGGGACAAGTTCTTTCGGGTCT, with 1010; and GGACACAGGCTCCCGCGTTACCGACACCGCGTGGGG, with 882. Turning to GGGGCGGCTTCAGGCGGCGTGACCTGACCGCAAGAG, the RUNX1 binding intensity came out at 1940. Then AGAGCCAGATCCCGCGCAGAGGACCGCGGCGACCGG, with 730; and AGCAGCTTCACGTCTGAGGTGAAGACAGCCCGCAGC, with 664; and CGGGCCCGCAGATATCACACGCACCCGAAAGTCCTC, with 859. To GCCCGGCCGCCTGCGGCCCGGCTTCAGGTCCCGTCT belongs 953; to CTGCATGACGTGTGGTTTTCATCTTCAGCAGGCGTG, 1170; to GGTTCATGTCCTTTTCCTCCTTGTGGTATAAAAGAG, 940. Then GAGAGGAGGTTGTTGTCAGATACCCACAAATGAGAA, with 845; and CTCGGCCAGGGAGCACTGAGCCACTGCGGCATCGCA, with 677. Turning to GCCACTATTGCCTGCCTTCTGCGGCTGAGAGTCCCA, the RUNX1 binding intensity is 930. To GTGAGTCACTGCCTGACCATGTGGGTTTTTGGTACG belongs 846. Sequence GCGGGGACCTGGATGTGTGTGGTGGCGGCGGCCGAA yielded an RUNX1 binding intensity of 809. The sequence ACTTACGCGGAGCGGTAATGTGAGGAGGCCTCCCGC returned an RUNX1 binding intensity of 751. In turn, CTTAGCACTTGTGGTCAGCCTGCTTCAGGCTGTGGC had an RUNX1 binding intensity of 2090. Then GGTGGTGGTGAATCCCACAATAGGAATCTTCTCTGT, with 1350.

Sequence GCAGCCTCCGCGGCCCCCGCCCGGCCCGCAGCGCCA returned an RUNX1 binding intensity of 896.
